# The source gives no read counts; variants with many changes may rest on few reads.
# B1: CPEB3 Ribozyme (parent)
# chain: UAACAGGGGGCCACAGCAGAAGCGUUCACGUCGCAGCCCCUGUCAGAUUCUGGUGAAUCUGCGAAUUCUGCUGUAUAUCUC
# Variants of: B1
# Experiment: self-cleavage, relative activity (ratio to wild type); higher = more cleavage; in vitro, sequencing
# Outline: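 Relative activity was defined as the cleaved/total read fraction for a variant divided by the same fraction for the unmutated ribozyme. CPEB3 self-cleaving ribozyme libraries were made by rounds of error-prone PCR, barcoded, and transcribed in vitro with T7 RNA polymerase for 5 hours at 37°C, and cleavage ran through transcription plus a 15 min DNase I step before EDTA. Illumina sequencing of template-switched reverse transcripts gave the reads, and DNA sequencing mapped the barcodes. Averages come from three batches, using variants with at least 5 reads.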
row,Variant,self-cleavage
1,A28U U41C U60A,0.32
2,A28U C59A U67C,0.14
3,A28U U54G U58C U66C,0.07
4,U31C A35G U48C U49C U54C U72A U74A,0.17
5,U31A U69A U80C,0.41
6,A28U U60C U69A,0.19
7,A28G U48C G63A,0.18
8,U31A G33A U41C U49C U67A,0.08
9,C29A U43A A65G U74C,0.23
10,C29U U43C U51C,0.2
11,G30A C39U A64U,0.1
12,A28G U51A U60A,0.04
13,G30U A45U A56U,0.09
14,G30U U54C G70A U76C,0.06
15,U31C A35U U43C U49C,0.08
16,G30A U31C U41C U49A,0.08
17,A28G U41C U69A,0.17
18,A28G U31C U48C,0.16
19,A28U A35G U54C A77G,1.26
20,A28G U41A U69C,0.23
21,A28G U54C U67C U80C,0.15
22,A28U A47U A57G U72A,0.11
23,G30A U48C G55A U67C,0.04
24,U31A A56U C59A U66C,0.08

row,Variant,self-cleavage
1,A28U U67A U72C,0.29
2,A28U A45U G53A U60C A65G,0.14
3,U31A U41G U54C,0.23
4,U31C A56U U58G,0.1
5,U31A U43C U74C,0.5
6,U31C C68A U78C,0.42
7,U31C C40A U60A,0.19
8,U31A A35G U54C U58C U60A,0.2
9,A28U U51C G61C U69A A77U U80C,0.33
10,U31C A47G U49G U72C U78C,0.1
11,U31A U41A A45G U48C A56U,0.14
12,U31C A45G G52A A56U,0.27
13,U31C C32A A47G A65G U69C U74A U78C,0.07
14,G30U U31G U43C,0.12
15,U31A U66C U78C U80C,0.1
16,A28G U67A U78C U80A,0.39
17,A28G U54A A65G,0.21
18,A28G U41C U43A U60A,0.19
19,A28U C29U A35U U43C U51C A64U,0.07
20,A28G U48C G55U,0.2
21,A28U U43C A56U U58C U69C,0.08
22,U31A A64U U69A,0.17
23,A28G U41A A64G U78C C81U,0.09
24,G30A A56U U67C U72C,0.32

row,Variant,self-cleavage
1,U31A A35C U43A U54C U69C,0.21
2,G30A A45G U69A,0.34
3,A28G U48C U60C,0.03
4,U31C A35G U49C,0.35
5,A28U A56G U60A A65U,0.3
6,G30U U31C A45G,0.13
7,A28G U54C A65G,0.17
8,G30C U31G A47U,0.08
9,U31A U51A U72C U80A,0.51
10,A28G U51C G52U,0.63
11,A28G U51C U80C,0.73
12,A28G U41A U67A,0.1
13,A28G U60C A64U U80G,0.13
14,A28U G55U A64G,0.59
15,A28U U60C U74A,0.41
16,U31A U60C U74C,0.44
17,A28G U54C U76C,0.58
18,A28G U51A U80G,0.55
19,U31C A35G U41C U54C A64G,0.42
20,A28U C44U A45G U51A C71A,0.12
21,U31C A64G U69C,0.27
22,A28G U43C A64G A65U,0.24
23,A28G U31G C40G U78C,0.19
24,C29U A56U U69A,0.09

row,Variant,self-cleavage
1,U31C A35G C37A U58C C62U U80C,0.08
2,A28G U49C U78A,0.15
3,A28G U41A A56G U80C,0.1
4,C29U U49C U76G U78C,0.06
5,A28G U48C A57G A65G,0.19
6,A28G U43C A77G,0.19
7,G30U U67A U78C,0.06
8,A28G U60C C71A U72C U78A,0.13
9,G30C G52C A65G U76C,0.13
10,C29A A45U U54C U72G,0.08
11,A28U A47U U69C,0.39
12,A28U C37A A64G A65G A75G,0.07
13,U31A C40U A47U G73U,0.67
14,U31A C34U U41A U51A,0.33
15,G30C U41C U43A A56G A64G,0.22
16,A28G U31A A47G U69A U74C,0.09
17,A28G U31C A64U A65U U78C C79U,0.05
18,C29U A45U A56C,0.09
19,A28G U74A A75G,0.69
20,A28G U31C U49C A64G U69A,0.05
21,A28U G52A A56G,0.63
22,G30A G55A U60C,0.11
23,A28G U31A A47G C62U,0.19
24,C29A U48C U78A,0.18

row,Variant,self-cleavage
1,U31A A64G A65G U74C,0.13
2,U31A A64G C68A U74A,0.12
3,A28U U41A U49A U74A,0.1
4,U31A U43C U72A U78A,0.11
5,A28G U31A U54A A64U,0.43
6,A28U U58A C68G,0.11
7,U31A A47G U54G U69A U72C A77U,0.14
8,U31A U49C A64G,0.14
9,G30A A64U U80A,0.31
10,A28G G53U A56U,0.29
11,U31C A35U U48C,0.39
12,C29U U49C U69C,0.11
13,A28U A56G A65G A77U,0.15
14,U31C C34A A45U U60C U66C,0.16
15,C29A A56U U67A,0.39
16,A28U A56G U69C,0.31
17,U31A A35G U74C,1.28
18,A28U G30C G33U U54C A75U,0.13
19,A28U A35G U66C,0.87
20,A28G U48A U51A U74A,0.43
21,U31A G33A U48A,0.07
22,U31A A35G A45U U78C,0.92
23,U31C A65G U74A,0.57
24,A28U U41A U60C U69C U72C,0.06

row,Variant,self-cleavage
1,C29U A56G U72A,0.34
2,C29G U67C U69C,0.21
3,U31C A57U U72A,0.11
4,C29A A35U A64U,0.18
5,U31A U41G U51C U76A A77U,0.08
6,G30U U41C U72C,0.1
7,A28G U54A A57U,0.53
8,U31C A35G U49C U60C U72C,0.09
9,A28U U31C A64G A65G U80A,0.09
10,G30A U54C A64G U66A U69A U78C,0.07
11,U31A U48C U54G A56C U66A U72A,0.09
12,A28U G46U C62U,0.15
13,A28G U31G U69C,0.07
14,G30A U72G A77G,0.17
15,G30C U31C A45U U69A U76A,0.23
16,A28U G33U U76C,0.43
17,A28G U43C U66C,0.22
18,A28U U51A A56U U69C,0.26
19,A28G G70U A75G U80G,0.07
20,C29U U54C G55U A56G,0.13
21,G30U G63C U76A U80C,0.11
22,A28G U41C U51A A64G U66C A75G,0.18
23,U31C A47G U49C A57G A77C,0.05
24,A28G U49C A56U U66C U78C,0.11

row,Variant,self-cleavage
1,U31C A35G U60C U69A C79A,0.46
2,A28G U41A C62U,0.47
3,A28U U41C A47G U51A U69C,0.57
4,A28G U31A U78C,0.13
5,C29U U43C A57G U72C,0.1
6,G30A A35C U78C,0.12
7,A28U U54C G55C,0.36
8,A28U G61A A77U,0.61
9,U31A G33U U60C U67C U80A,0.06
10,A28U U31C C38U A57G U78C,0.09
11,G30A U41A A45G U78A,0.04
12,U31C G33A A35G U58A C62U U78G,0.13
13,C29U U67C U72C,0.1
14,U31A U43C U48C U51A,0.09
15,U31A U54A U78C,0.44
16,A28G U66C U67C U69G U74C,0.15
17,G30A A35G U67C,0.14
18,C29U A35G U43A A65G U78C,0.68
19,U31A G53C U69C,0.22
20,G30A U54A U67C,0.09
21,G30U G52C U72G,0.05
22,A28U A56G U67C,0.19
23,U31A U41C A47G,0.24
